In PMC4336329 (PLoS ONE, 2015):
About 14,000 (4.5%) of roughly 310,000 compounds showed an effect of 50% or more. The effect is printed as a negative number. This is one part of the list.

Each compound was assayed against human ether-à-go-go-related gene (hERG) potassium channel (human, UniProt Q12809) (assay: primary screen, population patch clamp on CHO cells stably expressing hERG).
Method: Briefly, Chinese hamster ovary (CHO) cells stably expressing the hERG channel were dislodged from tissue culture flasks and dispensed into PPC plates. […] During the recording, background leak currents were estimated by a 100 ms step to -80 mV from an initial holding potential of -70 mV and subtracted from the subsequent current measurement. The campaign was conducted in two phases using slight differences in recording protocol. In the first phase, the initial voltage pulse used a 100 ms step to -30 mV from a holding potential of -70 mV, a 2 s conditioning step to +25 mV, and a 2 s test step to -30 mV. During the second phase of the screen, the potential during the conditioning step was raised to +45 mV. In both phases of the campaign, a secondary voltage pulse was applied using the same parameters as the second phase initial pulse. The initial and secondary pulses were applied in the absence of compound, and upon application of 1 μM and 10 μM test concentrations. […]
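Further: peak tail current of the secondary pulse compared with the same well before compound.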

Sequence of human ether-à-go-go-related gene (hERG) potassium channel (Q12809 whole entry, looked up): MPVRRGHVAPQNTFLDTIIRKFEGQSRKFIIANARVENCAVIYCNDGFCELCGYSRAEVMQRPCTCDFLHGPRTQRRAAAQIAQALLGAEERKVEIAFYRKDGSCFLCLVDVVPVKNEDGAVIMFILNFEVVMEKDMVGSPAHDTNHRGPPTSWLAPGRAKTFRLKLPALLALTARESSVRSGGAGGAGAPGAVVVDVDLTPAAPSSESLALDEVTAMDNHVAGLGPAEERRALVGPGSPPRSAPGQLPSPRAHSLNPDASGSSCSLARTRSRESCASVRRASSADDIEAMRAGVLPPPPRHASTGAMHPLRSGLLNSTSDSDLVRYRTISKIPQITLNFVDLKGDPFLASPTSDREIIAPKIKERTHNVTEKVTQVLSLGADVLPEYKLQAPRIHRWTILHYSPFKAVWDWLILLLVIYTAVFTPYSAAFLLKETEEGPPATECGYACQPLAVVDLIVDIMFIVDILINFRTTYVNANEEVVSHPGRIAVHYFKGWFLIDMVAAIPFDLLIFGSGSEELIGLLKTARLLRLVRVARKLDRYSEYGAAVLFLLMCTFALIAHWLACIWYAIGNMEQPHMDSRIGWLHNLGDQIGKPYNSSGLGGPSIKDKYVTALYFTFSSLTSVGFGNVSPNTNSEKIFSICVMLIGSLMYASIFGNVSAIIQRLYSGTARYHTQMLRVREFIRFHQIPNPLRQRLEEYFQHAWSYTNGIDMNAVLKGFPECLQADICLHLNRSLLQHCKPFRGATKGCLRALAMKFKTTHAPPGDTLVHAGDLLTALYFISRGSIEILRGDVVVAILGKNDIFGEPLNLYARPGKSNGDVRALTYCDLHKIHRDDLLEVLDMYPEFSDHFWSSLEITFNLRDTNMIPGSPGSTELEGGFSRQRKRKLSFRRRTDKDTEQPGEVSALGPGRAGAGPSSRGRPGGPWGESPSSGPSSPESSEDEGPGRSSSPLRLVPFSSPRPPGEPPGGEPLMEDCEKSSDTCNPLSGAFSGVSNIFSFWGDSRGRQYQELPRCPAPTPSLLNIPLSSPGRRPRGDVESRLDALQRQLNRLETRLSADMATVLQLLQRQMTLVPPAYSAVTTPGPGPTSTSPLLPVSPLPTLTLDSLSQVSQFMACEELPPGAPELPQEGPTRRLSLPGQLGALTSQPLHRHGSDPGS

SMILES	hERG current change (%, negative = inhibition) at 10uM
O=C(Nc1cccnc1)c1ccccc1NS(=O)(=O)c1ccc(F)cc1	-11.5%
Cc1cc(C)n(-c2cc(N3CCOCC3)nc(-c3ccccc3)n2)n1	5.72%
O=C(NCCCN=C1NS(=O)(=O)c2ccccc21)c1ccc(S(=O)(=O)N2CCCCC2)cc1	-4.67%
O=C(Nc1ccccc1F)Oc1cccc(OC(=O)Nc2ccccc2F)c1	17.5%
Cc1ccc(C)c(-n2cc(CN3CCN(C(=O)c4ncn[nH]4)CC3)c(-c3ccccc3)n2)c1	-30.7%
Cc1n[nH]c(C)c1CCCCOc1ccccc1[N+](=O)[O-].O=C(O)C(=O)O	11.9%
CCCCn1c(NC(=O)C2CCCCC2)nc2ccccc21	4.63%
Cc1ccc(C(=O)OCc2cn3ccccc3n2)cc1	-12.7%
Cc1ccoc1C(=O)Nc1cccc2ccccc12	10.5%
CN(C)C(=O)COC(=O)c1cccnc1Nc1ccccc1F	13.5%
COc1ccccc1N(CC(=O)N1CCC(C(N)=O)CC1)S(=O)(=O)c1ccccc1	12.1%
CCCCNc1cc(=O)n(C)c(=O)[nH]1	7.25%
Cc1ccc(N2CC(=O)N(CC(=O)O)C2=O)cc1	25.2%
CC(C)N=C1SC(CC(=O)Nc2ccccc2)C(=O)N1C(C)C (stereo not drawn)	-37.6%
CCOc1ccccc1NC(=O)CCS(=O)(=O)c1ccc(OC)cc1	-0.411%
COc1ccc(C(=O)NCc2nnc(SCC(=O)Nc3cccc(C(F)(F)F)c3)o2)cc1OC	9.11%
COc1ccccc1NC(=O)COC(=O)c1ccccc1C(=O)N1CCN(c2ccccc2)CC1	-42.3%
O=C1NC(c2ccccc2)=CC(c2ccccc2O)N1 (stereo not drawn)	5.3%
Cc1cc(C)n2nc(SCc3ccccc3C(=O)O)nc2n1	19.7%
CCOC(=O)c1ccc(CNS(=O)(=O)c2c(C)ccc3nsnc23)o1	-6.38%
CC(C)CN(C(=O)c1cccc([N+](=O)[O-])c1)c1c(N)n(CC(C)C)c(=O)[nH]c1=O	14.7%
C=CCn1c(SCC(=O)NCC2CCCO2)nc2sc(C)c(C)c2c1=O (stereo not drawn)	-22.2%
COc1ccc(OC)c(C(=O)CSc2nc3ncccc3[nH]2)c1	-3.98%
C/C(=N\Nc1nnc2c3ccccc3n(C)c2n1)c1ccc(C)o1	-52.4%
